Assay results from patent US20240400654A1.
Not every entry of the source has a single result; some have several. This list holds those alone. An entry can have further records. The values listed for one entry read as repeated measurements on other runs, samples or individuals; one of them may be the mean. Marks such as (2×) count equal records among those shown.

Biological target: HRgpA-6H (Porphyromonas gingivalis) (UniProt P28784)
Experiment: ELISA, coated HRgpA-6H

UniProt P28784, sequence (P28784 228-860 limits assumed): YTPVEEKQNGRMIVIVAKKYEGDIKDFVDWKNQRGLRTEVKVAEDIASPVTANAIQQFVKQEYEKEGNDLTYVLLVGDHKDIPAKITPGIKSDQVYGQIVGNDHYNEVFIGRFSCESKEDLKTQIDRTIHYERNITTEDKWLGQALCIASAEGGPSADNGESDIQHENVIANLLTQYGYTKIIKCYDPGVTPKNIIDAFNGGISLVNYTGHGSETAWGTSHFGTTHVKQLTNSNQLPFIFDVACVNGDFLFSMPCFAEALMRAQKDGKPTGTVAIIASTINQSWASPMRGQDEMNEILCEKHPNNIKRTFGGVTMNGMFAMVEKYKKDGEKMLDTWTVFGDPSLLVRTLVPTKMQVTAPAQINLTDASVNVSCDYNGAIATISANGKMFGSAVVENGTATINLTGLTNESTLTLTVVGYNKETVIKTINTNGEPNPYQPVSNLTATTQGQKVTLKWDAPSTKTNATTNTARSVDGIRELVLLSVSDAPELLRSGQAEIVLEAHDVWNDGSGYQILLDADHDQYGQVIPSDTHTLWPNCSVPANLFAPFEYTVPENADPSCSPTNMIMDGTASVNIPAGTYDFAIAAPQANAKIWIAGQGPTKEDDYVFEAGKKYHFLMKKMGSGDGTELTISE

B1: parental mouse (KB001) Fab, FASEBA sample (Fab, V domains shown)
VH: EVQLKQSGPGLVAPSQSLSITCTVSGFSLSIYSVHWVRQPPGKGLEWLGMIWGGGSSDYNSALKSRLSISKDNSKSQVFLKMNSLQTDDTAMYYCARNGNFYAMDYWGQGTSVTVSS
VL: QIVLTQSPAIMSASLGERVTMTCTASSSVSSSFLHWYQQKPGSSPQLWIYSTSNLASGVPARFSGSGSGTSYSLTISSMEAEDAATYYCHQYHHSPYIYTFGGGTKLEIK
OD450 nm: 0.806, 0.809, 0.796, 0.831, 0.835, 0.829, 0.823, 0.916, 0.872, 0.852, 0.825, 0.828, 0.842, 0.868, 0.697, 0.729, 0.71, 0.767, 0.705 [lines of one column]
Ratio OD(Variant)/OD(WT): 1.05 (4×), 1.03 (3×), 1.06 (3×), 1.07, 1.08, 1.01, 0.825, 0.962, 0.811, 0.974, 0.895 [lines of one column]

B2: KB001 mouse Fab VL S27T (Fab, V domains shown)
VH: EVQLKQSGPGLVAPSQSLSITCTVSGFSLSIYSVHWVRQPPGKGLEWLGMIWGGGSSDYNSALKSRLSISKDNSKSQVFLKMNSLQTDDTAMYYCARNGNFYAMDYWGQGTSVTVSS
VL: QIVLTQSPAIMSASLGERVTMTCTASTSVSSSFLHWYQQKPGSSPQLWIYSTSNLASGVPARFSGSGSGTSYSLTISSMEAEDAATYYCHQYHHSPYIYTFGGGTKLEIK
OD450 nm: 0.783, 0.702, 0.743, 0.737, 0.71 [lines of one column]
Ratio OD(Variant)/OD(WT): 1.04, 0.935, 0.99, 0.982, 0.946 [lines of one column]

B3: KB001 mouse Fab VL S27A (Fab, V domains shown)
VH: EVQLKQSGPGLVAPSQSLSITCTVSGFSLSIYSVHWVRQPPGKGLEWLGMIWGGGSSDYNSALKSRLSISKDNSKSQVFLKMNSLQTDDTAMYYCARNGNFYAMDYWGQGTSVTVSS
VL: QIVLTQSPAIMSASLGERVTMTCTASASVSSSFLHWYQQKPGSSPQLWIYSTSNLASGVPARFSGSGSGTSYSLTISSMEAEDAATYYCHQYHHSPYIYTFGGGTKLEIK
OD450 nm: 0.816, 0.808, 0.714, 0.722 [lines of one column]
Ratio OD(Variant)/OD(WT): 1.09, 1.08, 0.951, 0.962 [lines of one column]

B4: KB001 mouse Fab VL S31G (Fab, V domains shown)
VH: EVQLKQSGPGLVAPSQSLSITCTVSGFSLSIYSVHWVRQPPGKGLEWLGMIWGGGSSDYNSALKSRLSISKDNSKSQVFLKMNSLQTDDTAMYYCARNGNFYAMDYWGQGTSVTVSS
VL: QIVLTQSPAIMSASLGERVTMTCTASSSVSGSFLHWYQQKPGSSPQLWIYSTSNLASGVPARFSGSGSGTSYSLTISSMEAEDAATYYCHQYHHSPYIYTFGGGTKLEIK
OD450 nm: 0.864, 0.899, 0.824, 0.776 [lines of one column]
Ratio OD(Variant)/OD(WT): 1.02, 1.06, 0.975, 0.918 [lines of one column]

B5: KB001 mouse Fab VL S31N (Fab, V domains shown)
VH: EVQLKQSGPGLVAPSQSLSITCTVSGFSLSIYSVHWVRQPPGKGLEWLGMIWGGGSSDYNSALKSRLSISKDNSKSQVFLKMNSLQTDDTAMYYCARNGNFYAMDYWGQGTSVTVSS
VL: QIVLTQSPAIMSASLGERVTMTCTASSSVSNSFLHWYQQKPGSSPQLWIYSTSNLASGVPARFSGSGSGTSYSLTISSMEAEDAATYYCHQYHHSPYIYTFGGGTKLEIK
OD450 nm: 0.869, 0.791, 0.749, 0.789, 0.769 [lines of one column]
Ratio OD(Variant)/OD(WT): 1.03, 0.936, 0.886, 0.934, 0.91 [lines of one column]

B6: KB001 mouse Fab VL T52A (Fab, V domains shown)
VH: EVQLKQSGPGLVAPSQSLSITCTVSGFSLSIYSVHWVRQPPGKGLEWLGMIWGGGSSDYNSALKSRLSISKDNSKSQVFLKMNSLQTDDTAMYYCARNGNFYAMDYWGQGTSVTVSS
VL: QIVLTQSPAIMSASLGERVTMTCTASSSVSSSFLHWYQQKPGSSPQLWIYSASNLASGVPARFSGSGSGTSYSLTISSMEAEDAATYYCHQYHHSPYIYTFGGGTKLEIK
OD450 nm: 0.923, 0.848, 0.851, 0.782 [lines of one column]

B7: KB001 mouse Fab VL S57K (Fab, V domains shown)
VH: EVQLKQSGPGLVAPSQSLSITCTVSGFSLSIYSVHWVRQPPGKGLEWLGMIWGGGSSDYNSALKSRLSISKDNSKSQVFLKMNSLQTDDTAMYYCARNGNFYAMDYWGQGTSVTVSS
VL: QIVLTQSPAIMSASLGERVTMTCTASSSVSSSFLHWYQQKPGSSPQLWIYSTSNLAKGVPARFSGSGSGTSYSLTISSMEAEDAATYYCHQYHHSPYIYTFGGGTKLEIK
OD450 nm: 0.841, 0.84, 0.864, 0.846, 0.879 [lines of one column]
Ratio OD(Variant)/OD(WT): 1.03 (2×), 1.06, 1.04, 1.08 [lines of one column]

B8: KB001 mouse Fab VL T24S (Fab, V domains shown)
VH: EVQLKQSGPGLVAPSQSLSITCTVSGFSLSIYSVHWVRQPPGKGLEWLGMIWGGGSSDYNSALKSRLSISKDNSKSQVFLKMNSLQTDDTAMYYCARNGNFYAMDYWGQGTSVTVSS
VL: QIVLTQSPAIMSASLGERVTMTCSASSSVSSSFLHWYQQKPGSSPQLWIYSTSNLASGVPARFSGSGSGTSYSLTISSMEAEDAATYYCHQYHHSPYIYTFGGGTKLEIK
OD450 nm: 0.822, 0.798, 0.812, 0.704 [lines of one column]
Ratio OD(Variant)/OD(WT): 1.07, 1.04, 1.06, 0.915 [lines of one column]

B9: KB001 mouse Fab VL S28F (Fab, V domains shown)
VH: EVQLKQSGPGLVAPSQSLSITCTVSGFSLSIYSVHWVRQPPGKGLEWLGMIWGGGSSDYNSALKSRLSISKDNSKSQVFLKMNSLQTDDTAMYYCARNGNFYAMDYWGQGTSVTVSS
VL: QIVLTQSPAIMSASLGERVTMTCTASSFVSSSFLHWYQQKPGSSPQLWIYSTSNLASGVPARFSGSGSGTSYSLTISSMEAEDAATYYCHQYHHSPYIYTFGGGTKLEIK
OD450 nm: 0.674, 0.721, 0.74, 0.678 [lines of one column]
Ratio OD(Variant)/OD(WT): 0.898, 0.961, 0.986, 0.903 [lines of one column]

B10: KB001 mouse Fab VL S31L (Fab, V domains shown)
VH: EVQLKQSGPGLVAPSQSLSITCTVSGFSLSIYSVHWVRQPPGKGLEWLGMIWGGGSSDYNSALKSRLSISKDNSKSQVFLKMNSLQTDDTAMYYCARNGNFYAMDYWGQGTSVTVSS
VL: QIVLTQSPAIMSASLGERVTMTCTASSSVSLSFLHWYQQKPGSSPQLWIYSTSNLASGVPARFSGSGSGTSYSLTISSMEAEDAATYYCHQYHHSPYIYTFGGGTKLEIK
OD450 nm: 0.742, 0.739, 0.745, 0.691 [lines of one column]
Ratio OD(Variant)/OD(WT): 0.878, 0.875, 0.882, 0.818 [lines of one column]

B11: KB001 mouse Fab VH S30D (Fab, V domains shown)
VH: EVQLKQSGPGLVAPSQSLSITCTVSGFSLDIYSVHWVRQPPGKGLEWLGMIWGGGSSDYNSALKSRLSISKDNSKSQVFLKMNSLQTDDTAMYYCARNGNFYAMDYWGQGTSVTVSS
VL: QIVLTQSPAIMSASLGERVTMTCTASSSVSSSFLHWYQQKPGSSPQLWIYSTSNLASGVPARFSGSGSGTSYSLTISSMEAEDAATYYCHQYHHSPYIYTFGGGTKLEIK
OD450 nm: 0.579, 0.563, 0.617, 0.528, 0.54, 0.552, 0.547, 0.448 [lines of one column]
Ratio OD(Variant)/OD(WT): 1.15, 1.12, 1.22, 1.05, 1.07, 1.09, 1.08, 0.888 [lines of one column]

B12: KB001 mouse Fab VH S61E (Fab, V domains shown)
VH: EVQLKQSGPGLVAPSQSLSITCTVSGFSLSIYSVHWVRQPPGKGLEWLGMIWGGGSSDYNEALKSRLSISKDNSKSQVFLKMNSLQTDDTAMYYCARNGNFYAMDYWGQGTSVTVSS
VL: QIVLTQSPAIMSASLGERVTMTCTASSSVSSSFLHWYQQKPGSSPQLWIYSTSNLASGVPARFSGSGSGTSYSLTISSMEAEDAATYYCHQYHHSPYIYTFGGGTKLEIK
OD450 nm: 0.603, 0.567, 0.588, 0.547 [lines of one column]
Ratio OD(Variant)/OD(WT): 1.22, 1.15, 1.19, 1.11 [lines of one column]

B13: KB001 mouse Fab VH S61D (Fab, V domains shown)
VH: EVQLKQSGPGLVAPSQSLSITCTVSGFSLSIYSVHWVRQPPGKGLEWLGMIWGGGSSDYNDALKSRLSISKDNSKSQVFLKMNSLQTDDTAMYYCARNGNFYAMDYWGQGTSVTVSS
VL: QIVLTQSPAIMSASLGERVTMTCTASSSVSSSFLHWYQQKPGSSPQLWIYSTSNLASGVPARFSGSGSGTSYSLTISSMEAEDAATYYCHQYHHSPYIYTFGGGTKLEIK
OD450 nm: 0.562, 0.547, 0.549, 0.472 [lines of one column]

B14: parental mouse (KB001) Fab, FASEBA supernatant (Fab, V domains shown)
VH: EVQLKQSGPGLVAPSQSLSITCTVSGFSLSIYSVHWVRQPPGKGLEWLGMIWGGGSSDYNSALKSRLSISKDNSKSQVFLKMNSLQTDDTAMYYCARNGNFYAMDYWGQGTSVTVSS
VL: QIVLTQSPAIMSASLGERVTMTCTASSSVSSSFLHWYQQKPGSSPQLWIYSTSNLASGVPARFSGSGSGTSYSLTISSMEAEDAATYYCHQYHHSPYIYTFGGGTKLEIK
OD450 nm: 0.538, 0.568, 0.55, 0.531, 0.924, 0.945, 0.955, 0.891, 0.898, 0.843, 0.733, 0.795, 0.785, 0.698, 0.476, 0.867, 0.803 [lines of one column]
Ratio OD(Variant)/OD(WT): 1.06, 1.05 (2×), 1.09, 1.12, 1.15, 1.16, 1.01, 1.02, 0.996, 0.83, 0.998, 0.992, 0.882, 0.965, 0.971 [lines of one column]

B15: KB001 mouse Fab VH I31Y (Fab, V domains shown)
VH: EVQLKQSGPGLVAPSQSLSITCTVSGFSLSYYSVHWVRQPPGKGLEWLGMIWGGGSSDYNSALKSRLSISKDNSKSQVFLKMNSLQTDDTAMYYCARNGNFYAMDYWGQGTSVTVSS
VL: QIVLTQSPAIMSASLGERVTMTCTASSSVSSSFLHWYQQKPGSSPQLWIYSTSNLASGVPARFSGSGSGTSYSLTISSMEAEDAATYYCHQYHHSPYIYTFGGGTKLEIK
OD450 nm: 0.449, 0.436, 0.462, 0.454, 0.466 [lines of one column]
Ratio OD(Variant)/OD(WT): 0.89, 0.864, 0.916, 0.9, 0.924 [lines of one column]

B16: KB001 mouse Fab VH G53A (Fab, V domains shown)
VH: EVQLKQSGPGLVAPSQSLSITCTVSGFSLSIYSVHWVRQPPGKGLEWLGMIWAGGSSDYNSALKSRLSISKDNSKSQVFLKMNSLQTDDTAMYYCARNGNFYAMDYWGQGTSVTVSS
VL: QIVLTQSPAIMSASLGERVTMTCTASSSVSSSFLHWYQQKPGSSPQLWIYSTSNLASGVPARFSGSGSGTSYSLTISSMEAEDAATYYCHQYHHSPYIYTFGGGTKLEIK
OD450 nm: 0.664, 0.741, 0.67, 0.699 [lines of one column]
Ratio OD(Variant)/OD(WT): 0.834, 0.93, 0.841, 0.878 [lines of one column]

B17: KB001 mouse Fab VH S56G (Fab, V domains shown)
VH: EVQLKQSGPGLVAPSQSLSITCTVSGFSLSIYSVHWVRQPPGKGLEWLGMIWGGGGSDYNSALKSRLSISKDNSKSQVFLKMNSLQTDDTAMYYCARNGNFYAMDYWGQGTSVTVSS
VL: QIVLTQSPAIMSASLGERVTMTCTASSSVSSSFLHWYQQKPGSSPQLWIYSTSNLASGVPARFSGSGSGTSYSLTISSMEAEDAATYYCHQYHHSPYIYTFGGGTKLEIK
OD450 nm: 0.794, 0.823, 0.861, 0.819 [lines of one column]
Ratio OD(Variant)/OD(WT): 0.903, 0.936, 0.979, 0.931 [lines of one column]
